{"source": "PubChem BioAssay AID686978", "about": "(National Center for Advancing Translational Sciences (NCATS), 2013)", "note": "Screen size: about 420,000 compounds; about 64,000 (15%) were called active. Inconclusive means that the source gave no clear call. Such entries were picked first, then a sample of the others. Calls come from the whole dose curve; as a rule, active = well fitted inhibition curve with a large enough effect; inconclusive = small, poorly fitted or top-dose-only effect; inactive = flat fitted curve, though single readings scatter. No potency is given beside an inconclusive call; the fits are too rough. % is set by controls: 0 for no effect and ±100 for the full control effect; potency is the fitted concentration of half-maximal effect; tags give direction and shape of the fitted curve.", "data": [{"test": "qHTS for Inhibitors of human tyrosyl-DNA phosphodiesterase 1 (TDP1): qHTS in cells in absence of CPT; note: nearly all actives have a fitted effect of over 55% in size", "settings": "DT40 Tdp1-/- hTDP1 cells, no CPT, ATP luminescence, 48 h; activity change, negative = growth inhibition: at 46.2 µM (top of the series) unless noted", "in_short": "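A cellular qHTS used chicken DT40 cells lacking endogenous Tdp1 but carrying stably transfected human TDP1. Compounds were applied without camptothecin, and cell growth kinetics were judged by ATP-dependent luminescence after ≥48 hr.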", "values": [{"smiles": "Cc1cc(NC(=O)CSc2nc3ccccc3c(=O)n2C(C)c2ccccc2)no1", "note": "(configuration not stated)", "Potency": "inconclusive [inhibitor, single point]"}, {"smiles": "COc1ccccc1C(=O)COC(=O)Cn1nc(C)c([N+](=O)[O-])c1C", "Potency": "inactive"}, {"smiles": "C=CCOc1ccccc1CN1CCC(n2nccc2NC(=O)c2ccccc2)CC1", "Potency": "inactive"}, {"smiles": "C[C@@H]1CN([C@H](C)CO)S(=O)(=O)c2ccc(C#CC3CCCC3)cc2O[C@H]1CN(C)C(=O)Cc1ccccc1", "Potency": "active: 5.8 µM"}, {"smiles": "O=C(COC(=O)Cc1ccc(Cl)cc1)Nc1ccccc1-c1ccccc1", "activity change, negative = growth inhibition": "inconclusive: -34.6% [inhibitor]"}, {"smiles": "Cc1c(Cl)c([N+](=O)[O-])nn1CCCC(=O)NCCc1ccccc1", "Potency": "inactive"}, {"smiles": "O=C(Nc1ccc(Cl)cc1Cl)NC1CCCC1", "Potency": "inactive"}, {"smiles": "CC(=O)N1CC2(C)CN(C(C)=O)CC(C)(C1)C2=O", "Potency": "inactive"}, {"smiles": "NC(=O)NOCc1ccccc1F", "Potency": "inactive"}, {"smiles": "COc1ccc(C(C(=O)NCc2ccccc2)N(Cc2ccco2)C(=O)c2cnccn2)cc1", "note": "(configuration not stated)", "Potency": "inconclusive [inhibitor, single point]"}, {"smiles": "Cc1ccc2c(c1)C1CN(C)CCC1N2C(=S)Nc1ccc(OC(F)F)cc1", "note": "(configuration not stated)", "Potency": "inconclusive [inhibitor, single point]"}, {"smiles": "CCC(C)C(=O)Nc1nnc(SCC(=O)N2C(C)CCCC2C)s1", "note": "(configuration not stated)", "Potency": "inactive"}, {"smiles": "O=C(CSc1nc(-c2ccc(F)cc2)cc(C(F)(F)F)n1)NCc1cccs1", "Potency": "inactive"}, {"smiles": "CN(C)CCn1c(=O)n(C2CCCCC2)c(=O)c2c3c(sc21)CCCCC3", "Potency": "inconclusive [inhibitor, single point]"}, {"smiles": "CCOC(=O)Cn1c(=O)oc2cc(S(=O)(=O)Nc3cc(OCC)ccc3OCC)ccc21", "Potency": "inconclusive [inhibitor, single point]"}, {"smiles": "S=c1c2[nH]cnc2ncn1CCSc1ncnc2nc[nH]c12", "Potency": "inactive"}, {"smiles": "CC(C)Oc1ccc(/C=N/NC(=O)C2CCCN2S(=O)(=O)c2ccc(Cl)cc2)cc1", "note": "(configuration not stated)", "Potency": "active: 20.6 µM"}, {"smiles": "CCc1nnc(NS(=O)(=O)c2ccc(NC(=O)c3ccc([N+](=O)[O-])s3)cc2)s1", "Potency": "inactive"}, {"smiles": "Cc1csc(N(C(=O)c2cccc(S(=O)(=O)N(C)C)c2)c2ccccc2)n1", "Potency": "inconclusive [inhibitor, full curve, poor fit]"}, {"smiles": "O=C(CCN1CCCCO1)N1CCCC(N2CCN(c3ccc(F)cc3)CC2)C1", "note": "(configuration not stated)", "Potency": "inactive"}, {"smiles": "CNC(=O)CS(=O)(=O)CC(=O)Nc1cc(OC(C)C)c(Cl)cc1Cl", "Potency": "inactive"}, {"smiles": "NC(=O)c1ccccc1NC(=O)c1ccc2c(c1)OCO2", "Potency": "inconclusive [inhibitor, single point]"}, {"smiles": "Cc1cnc2cc(Cl)ccc2c1SCC(=O)O", "Potency": "inconclusive [inhibitor, single point]"}, {"smiles": "O=[N+]([O-])c1cc(S(=O)(=O)c2ccc(N3CCCCC3)c([N+](=O)[O-])c2)ccc1N1CCCCC1", "Potency": "active: 20.6 µM"}, {"smiles": "COc1ccc(-c2ccc3c(c2)[C@@H]2C[C@H]4[C@@H](C(=O)N2CC3)[C@H](C)ON4C)cc1", "Potency": "inconclusive [inhibitor, single point]"}, {"smiles": "COc1ccccc1N1CCN(Cc2nnc(-c3ccccc3C)o2)CC1", "Potency": "inconclusive [inhibitor, single point]"}, {"smiles": "O=[N+]([O-])c1ccc(Nc2cccc3c2[nH]c2c(-c4ccccc4)nccc23)c([N+](=O)[O-])c1", "Potency": "inconclusive [inhibitor, partial curve]"}, {"smiles": "CC(=O)Nc1ccc(Cl)c(-c2nc3ncccc3o2)c1", "Potency": "inactive"}, {"smiles": "C=CCNc1oc(-c2ccc(OCC)cc2)nc1C#N", "Potency": "inconclusive [inhibitor, partial curve]"}, {"smiles": "Cc1ccc(NC(=O)COC(=O)CCc2c(C)nc3ncnn3c2C)cc1", "Potency": "inactive"}, {"smiles": "COc1ccc(N(C)S(=O)(=O)c2cccc(C(=O)Nc3nnc(C)s3)c2)cc1", "activity change, negative = growth inhibition": "inconclusive: -34.6% [inhibitor]"}, {"smiles": "COc1cc(OC)c(C(=O)Nc2ccc(C(=O)c3ccccc3)cc2)cc1OC", "Potency": "inconclusive [inhibitor, single point]"}, {"smiles": "CN(Cc1ccon1)Cc1cn[nH]c1-c1ccc(-c2ccccc2)cc1", "Potency": "inconclusive [inhibitor, single point]"}, {"smiles": "CSc1nc2sc3c(c2c(=O)n1C)CCC(C)C3", "note": "(configuration not stated)", "activity change, negative = growth inhibition": "inconclusive: -32.5% [inhibitor]"}, {"smiles": "Cc1nn(-c2ccccc2)c(C)c1NC(=O)COC(=O)C1CC(=O)N(CCc2ccccc2)C1", "note": "(configuration not stated)", "Potency": "inactive"}, {"smiles": "Cc1cccc(N2CCN(C(=O)CNC(=O)c3ccccc3)CC2)c1C", "Potency": "inconclusive [inhibitor, single point]"}, {"smiles": "O=C(Cc1cccs1)N1CCC(c2nc3c(nnn3Cc3ccccc3Cl)c(=O)[nH]2)CC1", "Potency": "inconclusive [inhibitor, single point]"}, {"smiles": "CCOC(=O)c1sc2nc(C)cc(C)c2c1NC(=O)c1ccco1", "activity change, negative = growth inhibition": "inconclusive: -35.1% [inhibitor]"}, {"smiles": "O=Cc1c(-c2ccc(Cl)cc2)oc2ccc(O)cc12", "Potency": "inconclusive [inhibitor, single point]"}, {"smiles": "C[N+]1(C)CCC(=C2c3ccccc3CC(=O)c3sccc32)CC1", "Potency": "inconclusive [inhibitor, single point]"}, {"smiles": "O=C(CNC(=O)c1ccccc1F)NCCOc1ccccc1Cl", "Potency": "inactive"}, {"smiles": "Cc1cc(Cn2nnc(-c3ccc(Br)cc3)n2)cc(C)c1O", "Potency": "inconclusive [inhibitor, partial curve, poor fit]"}, {"smiles": "C/C(=N\\NC(=O)C(N)=O)c1ccc(O)cc1O", "Potency": "inconclusive [inhibitor, partial curve]"}, {"smiles": "COCCCn1c(=O)c2sccc2n2c(CCCC(=O)Nc3cccc(C(F)(F)F)c3)nnc12", "Potency": "active: 20.6 µM"}, {"smiles": "C[C@H](NC(=O)c1nc[nH]c1C(=O)N1CCN(c2ccccc2)CC1)C(=O)OCc1ccccc1", "Potency": "inconclusive [inhibitor, single point]"}, {"smiles": "CSc1oc(-c2ccccc2)nc1S(=O)(=O)c1ccc(C)cc1", "Potency": "inconclusive [inhibitor, single point]"}, {"smiles": "O=C(NCCCc1nc2ccccc2n1Cc1cccc(Cl)c1)C1CCCCC1", "Potency": "inconclusive [inhibitor, single point]"}]}]}
